The record followed here is the antibiotic and cytotoxicity screens of Wong et al. (2023).

Molecules are shown by their SMILES. The list shows a part of the results.

The subject of one experiment is HSkMC. The experiment in a line: cytotoxicity call (relative viability < 0.9). Conditions: 10 µM.
The next experiment relates to HepG2. As to the kind of experiment: cytotoxicity call (relative viability < 0.9). Conditions: 10 µM.
The next experiment relates to S. aureus RN4220. The experiment in a line: growth inhibition call (relative growth <= 0.2). Conditions: 50 µM.

In the case of `Cc1noc(C)c1S(=O)(=O)N(C)C[C@H]1OCCCC[C@@H](C)Oc2ccc(N(C)C)cc2C(=O)N([C@H](C)CO)C[C@@H]1C`, the cytotoxicity call with HSkMC and in the experiment on HepG2 was “inactive” throughout. Also, the growth inhibition call in the experiment on S. aureus RN4220 was “inactive”.

Regarding `C[C@@H]1CN([C@H](C)CO)C(=O)Cc2cc(NC(=O)CCCCCC(=O)Nc3ccccc3N)ccc2O[C@@H]1CN(C)S(=O)(=O)c1cn(C)cn1`, the cytotoxicity call in the experiment on HSkMC and in the experiment on HepG2 was “inactive” each time. For the same compound, the growth inhibition call in the experiment on S. aureus RN4220 is “inactive”.

On to `Cc1cc(C(=O)Nc2cccc3c2O[C@@H](CN(C)C(=O)NC(C)C)[C@@H](C)CN([C@H](C)CO)C3=O)n(C)n1`, for which the cytotoxicity call in the experiment on HSkMC and in the experiment on HepG2 was “inactive” each time. For the same compound, the growth inhibition call in the experiment with S. aureus RN4220 is “inactive”.

In the case of `C[C@H](CO)N1C[C@H](C)[C@@H](CN(C)C(=O)Nc2cccc3ccccc23)Oc2ccc(NC(=O)Nc3ccc4c(c3)OCO4)cc2C1=O`, the cytotoxicity call in the experiment on HSkMC and in the experiment with HepG2 was “inactive” each time. Further, in the experiment with S. aureus RN4220, the growth inhibition call was “inactive”.

On to `C[C@@H]1CN([C@H](C)CO)S(=O)(=O)c2ccc(-c3cccc(C#N)c3)cc2O[C@@H]1CN(C)C(=O)c1cccnc1`, for which the cytotoxicity call in the experiment on HSkMC and in the experiment with HepG2 was “inactive” in each case. For the same compound, the growth inhibition call in the experiment on S. aureus RN4220 is “inactive”.

On to `O[C@H]1[C@H](O)[C@@H](O)[C@H](O)[C@@H](O)[C@H]1O`, for which the cytotoxicity call in the experiment on HSkMC and with HepG2 was “inactive” in each case. In addition, the growth inhibition call with S. aureus RN4220 is “inactive”.

Take `NCc1nnnn1-c1ccc(F)cc1`: the cytotoxicity call in the experiment on HSkMC and in the experiment with HepG2 was “inactive” throughout. Also, in the experiment on S. aureus RN4220, the growth inhibition call was “inactive”.

As to `C[C@@H]1CCCCO[C@H](CN(C)C(=O)Nc2ccc(F)cc2)[C@H](C)CN([C@H](C)CO)C(=O)c2cc(NC(=O)CCC(F)(F)F)ccc2O1`, the cytotoxicity call with HSkMC and in the experiment on HepG2 was “inactive” throughout. The growth inhibition call with S. aureus RN4220 was “inactive”.

As to `C[C@H]1CN([C@@H](C)CO)C(=O)c2cccc(NS(=O)(=O)c3cccs3)c2O[C@@H]1CN(C)CC1CC1`, the cytotoxicity call with HSkMC and in the experiment on HepG2 was “inactive” in each case. Besides, the growth inhibition call with S. aureus RN4220 is “inactive”.

As to `COc1ccc(NC(=O)Nc2ccc3c(c2)CC(=O)N([C@H](C)CO)C[C@@H](C)[C@@H](CN(C)Cc2ccc(-c4ccccc4)cc2)O3)cc1`, in the experiment on HSkMC, the cytotoxicity call was “inactive”. Also, in the experiment with HepG2, the cytotoxicity call is “active”. Further, the growth inhibition call with S. aureus RN4220 is “inactive”.

Turning to `C[C@@H]1CN([C@H](C)CO)C(=O)c2cccc(NC(=O)Nc3cccc4ccccc34)c2O[C@@H]1CN(C)C(=O)Nc1ccc(C(F)(F)F)cc1`, the cytotoxicity call in the experiment with HSkMC and in the experiment on HepG2 was “active” in each case. Moreover, in the experiment with S. aureus RN4220, the growth inhibition call was “inactive”.

Regarding `Cc1cc(C)c(-n2cccc2CN)c(C)c1`, the cytotoxicity call in the experiment with HSkMC and with HepG2 was “inactive” in each case. In the experiment on S. aureus RN4220, the growth inhibition call is “inactive”.

Regarding `C[C@H](CO)N1C[C@H](C)[C@@H](CN(C)S(=O)(=O)c2ccc(Cl)cc2)OCCCC[C@H](C)Oc2ccc(NS(=O)(=O)c3ccc(Cl)cc3)cc2C1=O`, the cytotoxicity call in the experiment on HSkMC and in the experiment on HepG2 was “inactive” each time. Moreover, the growth inhibition call in the experiment on S. aureus RN4220 is “inactive”.

For the compound `Cc1noc(C)c1NC(=O)Nc1cccc2c1O[C@H](CN(C)C(=O)Nc1ccc(C(F)(F)F)cc1)[C@@H](C)CN([C@@H](C)CO)C2=O`, the cytotoxicity call in the experiment on HSkMC and in the experiment with HepG2 was “inactive” throughout. Also, the growth inhibition call in the experiment on S. aureus RN4220 is “inactive”.

On to `C=CCc1c(C)[nH]c(N)nc1=O`, for which the cytotoxicity call in the experiment with HSkMC and in the experiment on HepG2 was “inactive” each time. For the same compound, in the experiment on S. aureus RN4220, the growth inhibition call was “inactive”.

Consider `Cn1cnc2c1c(=O)[nH]c(=O)n2C`, for which the cytotoxicity call in the experiment on HSkMC and in the experiment on HepG2 was “inactive” each time. For the same compound, the growth inhibition call in the experiment on S. aureus RN4220 is “inactive”.

Turning to `C[C@H]1CN([C@@H](C)CO)C(=O)c2cc(NC(=O)c3ccncc3)ccc2O[C@@H]1CN(C)Cc1ccc2c(c1)OCO2`, the cytotoxicity call in the experiment with HSkMC and with HepG2 was “inactive” each time. The growth inhibition call in the experiment with S. aureus RN4220 is “inactive”.

On to `C[C@@H]1CN([C@@H](C)CO)C(=O)Cc2cc(NS(=O)(=O)c3ccccc3)ccc2O[C@H]1CN(C)S(=O)(=O)c1cn(C)cn1`, for which the cytotoxicity call in the experiment with HSkMC and with HepG2 was “inactive” in each case. For the same compound, the growth inhibition call with S. aureus RN4220 was “inactive”.

Consider `C[C@@H]1CN([C@H](C)CO)C(=O)c2cc(NC(=O)Cc3ccccc3)ccc2O[C@@H]1CN(C)S(=O)(=O)c1cn(C)cn1`, for which the cytotoxicity call with HSkMC and with HepG2 was “inactive” throughout. Besides, the growth inhibition call in the experiment on S. aureus RN4220 is “inactive”.

On to `C[C@@H]1CCCCO[C@@H](CN(C)C(=O)Nc2cccc3ccccc23)[C@H](C)CN([C@H](C)CO)C(=O)c2cc(NC(=O)NC3CCCCC3)ccc2O1`, for which the cytotoxicity call in the experiment with HSkMC and in the experiment on HepG2 was “inactive” each time. For the same compound, in the experiment with S. aureus RN4220, the growth inhibition call was “inactive”.

Turning to `C[C@@H]1CN([C@H](C)CO)C(=O)Cc2cc(NC(=O)CCC(F)(F)F)ccc2O[C@H]1CN(C)Cc1ccc(Oc2ccccc2)cc1`, in the experiment with HSkMC, the cytotoxicity call is “inactive”. Moreover, the cytotoxicity call in the experiment on HepG2 was “active”. Moreover, the growth inhibition call in the experiment with S. aureus RN4220 was “inactive”.

`C[C@H](CO)N1C[C@H](C)[C@H](CN(C)Cc2ccc(C(=O)Nc3ccccc3N)cc2)Oc2c(NC(=O)c3nc4ccccc4s3)cccc2C1=O`: the cytotoxicity call in the experiment on HSkMC and in the experiment with HepG2 was “inactive” throughout. The growth inhibition call with S. aureus RN4220 was “inactive”.

With `COc1ccc(S(=O)(=O)N(C)C[C@@H]2OCCCC[C@H](C)Oc3ccc(NC(=O)Nc4cccc5ccccc45)cc3C(=O)N([C@H](C)CO)C[C@H]2C)cc1`, the cytotoxicity call with HSkMC and in the experiment with HepG2 was “inactive” throughout. Also, the growth inhibition call with S. aureus RN4220 was “inactive”.

`Cc1noc(C)c1S(=O)(=O)Nc1ccc2c(c1)C(=O)N([C@@H](C)CO)C[C@@H](C)[C@H](CN(C)C(=O)Nc1ccc(F)cc1)OCCCC[C@@H](C)O2`: the cytotoxicity call in the experiment on HSkMC and with HepG2 was “inactive” each time. For the same compound, in the experiment with S. aureus RN4220, the growth inhibition call was “inactive”.

In the case of `COCC#Cc1ccc2c(c1)O[C@H](CN(C)Cc1ccc(F)cc1)[C@@H](C)CN([C@@H](C)CO)S2(=O)=O`, the cytotoxicity call with HSkMC and with HepG2 was “inactive” each time. Moreover, the growth inhibition call in the experiment with S. aureus RN4220 was “inactive”.

With `C[C@@H]1CN([C@H](C)CO)C(=O)c2cc(NC(=O)Nc3cccc4ccccc34)ccc2O[C@@H]1CN(C)Cc1ccc(C(=O)Nc2ccccc2N)cc1`, the cytotoxicity call with HSkMC was “inactive”. Besides, the cytotoxicity call in the experiment on HepG2 was “active”. Also, the growth inhibition call in the experiment with S. aureus RN4220 was “inactive”.

Consider `CC1(C)CC(/C=C/c2ccccc2)=Nc2ccccc2N1`, for which the cytotoxicity call in the experiment on HSkMC (human skeletal muscle cells) and in the experiment with HepG2 was “inactive” each time. In the experiment with S. aureus RN4220, the growth inhibition call is “inactive”.

Take `CN1CCN(C(=O)C[C@@H]2CC[C@@H]3[C@H](COC[C@H](O)CN3CC3CCCC3)O2)CC1`: the cytotoxicity call in the experiment with HSkMC and in the experiment with HepG2 was “inactive” throughout. The growth inhibition call in the experiment with S. aureus RN4220 is “inactive”.
